Test results published in the antibiotic and cytotoxicity screens of Wong et al. (2023).
The list shows a part of the results.

Key:
[1] = system: HSkMC (human skeletal muscle cells); experiment: cytotoxicity call (relative viability < 0.9); settings: 10 µM
[2] = system: HepG2; experiment: cytotoxicity call (relative viability < 0.9); settings: 10 µM
[3] = system: S. aureus RN4220; experiment: growth inhibition call (relative growth <= 0.2); settings: 50 µM

| SMILES | cytotoxicity call [1] | cytotoxicity call [2] | growth inhibition call [3] |
| --- | --- | --- | --- |
| Cc1noc(C)c1NC(=O)N(C)C[C@H]1Oc2ccc(NC(=O)Nc3cccc4ccccc34)cc2C(=O)N([C@@H](C)CO)C[C@H]1C | inactive | inactive | inactive |
| COc1ccc(-c2oc3cc(O[C@H]4O[C@H](CO)[C@@H](O)[C@H](O)[C@H]4O)c(OC)c(O)c3c(=O)c2OC)cc1O | inactive | inactive | inactive |
| C[C@@H]1CN([C@@H](C)CO)C(=O)c2cc(NS(=O)(=O)c3cccs3)ccc2O[C@@H]1CN(C)S(=O)(=O)c1ccccc1 | inactive | inactive | inactive |
| CN(C)c1nc(SCC(N)=O)nc(N(C)C)n1 | inactive | inactive | inactive |
| C[C@H](CO)N1C[C@H](C)[C@H](CN(C)Cc2ccc3c(c2)OCO3)OCCCC[C@H](C)Oc2ccc(NS(=O)(=O)c3ccc(Cl)cc3)cc2C1=O | inactive | inactive | inactive |
| C[C@@H]1CN([C@@H](C)CO)C(=O)c2cc(NS(C)(=O)=O)ccc2O[C@@H](C)CCCCO[C@@H]1CN(C)C(=O)c1ccncc1 | inactive | inactive | inactive |
| OC[C@H]1CC[C@@H]2O[C@H](CCc3ccc(C#Cc4ccccc4)cc3)[C@@H](n3cc(-c4ccccc4)nn3)C[C@@H]2O1 | inactive | active | inactive |
| CN1CCCN=C1C=Cc1cccc(O)c1.O=C(O)c1cc2ccccc2c(Cc2c(O)c(C(=O)O)cc3ccccc23)c1O | inactive | inactive | inactive |
| C[C@H](CO)N1C[C@H](C)[C@@H](CN(C)C(=O)Nc2ccc(C(F)(F)F)cc2)OCCCC[C@H](C)Oc2ccc(NS(=O)(=O)c3ccccc3)cc2C1=O | inactive | inactive | inactive |
